TGI data for one compound are collected here from PubChem BioAssay (NCI).

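How tested: cells in 96-well plates exposed to compound for 48 hours at five concentrations. TGI: concentration producing complete growth inhibition.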 The source holds more than one record for some entries. Only these are listed. The source may hold further records. Values that stand side by side repeat one measurement in other runs, samples, wells, individuals or studies. Brackets tell where a record comes from. A, B and so on number the origins entry by entry.

This experiment concerns MDA-MB-468 breast. Briefly: growth of human tumour cells (NCI), 48 h.

As for `CN(C)c1ccc(/C=C(\C#N)c2ccccc2)cc1`, the TGI is > 100 µM [sample A, 1 test] and 73.3 µM [sample B, 1 test] and 1.48 µM [sample C, 1 test].
